# Measured values: PubChem BioAssay AID504466 (National Center for Advancing Translational Sciences (NCATS), 2011)
# Hit rate of the full screen: of about 330,000 compounds, about 4,200 (1.3%) were called active. Inconclusive means that the source gave no clear call. Such entries were picked first, then a sample of the others. Calls follow the shape of the dose curve; as a rule, active = well fitted activation curve with a large enough effect; inconclusive = small, poorly fitted or top-dose-only effect; inactive = no such curve, though single readings can be large or run the other way. Potencies of inconclusive entries are doubtful fits and often do not repeat.
# Test: qHTS screen for small molecules that induce genotoxicity in human embryonic kidney (HEK293T) cells expressing luciferase-tagged ELG1; also: nearly all actives have a fitted effect of over 60% in size
# Settings: HEK293T ELG1-luciferase reporter, luminescence, 16 h; series mostly up to 46 µM
# Summary of the method: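 ELG1-luciferase HEK293T cells, 2,000/well; compound pinned in; 16 hr, 37 °C, 5% CO2; ONE-Glo, 30 min RT; luminescence on CCD imager.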
# Potency is read from the fitted curve at half-maximal effect; tags tell the direction and shape of the fitted curve.
row,Compound,Potency
1,CC(=O)c1ccc(NC(=O)COC(=O)c2ccccc2N=Nc2ccc(N(C)C)cc2)cc1,inactive
2,COc1ccccc1N1CCN(/N=C\C(Br)=C\c2ccccc2)CC1,"inconclusive: 29.1 µM [activator, single point]"
3,O=C(NCc1ccc(Cl)cc1Cl)c1ccccn1,"inconclusive: 23.1 µM [activator, partial curve, poor fit]"
4,Cc1ccc(N(CC(=O)N2CCCCCC2)S(C)(=O)=O)cc1Cl,inactive
5,Cc1ccc(-c2csc(N3CCC[C@@H]3C(=O)NCCn3c(-c4ccncc4)nc4ccccc43)n2)cc1,inactive
6,COC(=O)c1cc(NC(=O)Cc2cc(OC)c(OC)c(OC)c2)cc(C(=O)OC)c1,inactive
7,Cn1c(N)c(C(=O)COC(=O)/C=C/c2cccc(Cl)c2)c(=O)n(C)c1=O,inactive
8,CC1CC(C)CN(c2ccc(C(=O)NCc3ccc4c(c3)OCO4)cc2[N+](=O)[O-])C1 (configuration not stated),inactive
9,COc1ccc(-c2nnc(SCC(=O)N/N=C/c3ccccc3C(=O)O)n2-c2ccccc2)cc1,inactive
10,O=C(CNC(=O)c1cccs1)c1ccc(Br)cc1,"inconclusive: 3.55 µM [activator, single point]"
11,COc1cc(OC)c(C(=O)N/N=C/c2ccoc2)cc1OC,"inconclusive: 20.6 µM [activator, single point]"
12,O=C(Nc1nc(-c2ccccn2)cs1)c1ccc([N+](=O)[O-])o1,inactive
13,COc1ccccc1N(CC(=O)Nc1ccc(Br)cc1F)S(=O)(=O)c1cccs1,inactive
14,CCOc1ccc(N2C(=O)/C(=C/c3ccccc3)N=C2SC)cc1,"inconclusive: 23.1 µM [activator, partial curve, poor fit]"
15,Cc1oc2cc3oc(=O)ccc3cc2c1C,"inconclusive: 16.4 µM [activator, partial curve, poor fit]"
16,O=C(Nc1ccc(Cl)cn1)c1ccc2c(c1)OCCO2,active: 1.16 µM
17,Cc1ccc(OCC(=O)Nc2cccc(S(=O)(=O)N3CCCCCC3)c2)cc1C,"inconclusive: 18.3 µM [activator, partial curve, poor fit]"
18,COc1cc(/C=C2/C(=O)NN(c3cccc(C)c3)C2=O)ccc1OC(=O)c1ccco1,"inconclusive: 29.1 µM [activator, partial curve, poor fit]"
19,Cc1cc(-c2ccc(C(C)C)c(S(=O)(=O)Nc3ccccn3)c2)on1,"inconclusive: 18.3 µM [activator, partial curve, poor fit]"
20,O=C(Nc1ccc(C(=O)N2CCOCC2)cc1)c1cccc(Br)c1,"inconclusive: 25.9 µM [activator, partial curve, poor fit]"
21,Cc1ccc(N/C=C/C(=O)c2cccs2)cc1,active: 0.164 µM
22,Clc1ccccc1Nc1nnc(-c2ccncc2)s1,"inconclusive: 0.82 µM [activator, full curve]"
23,Cc1cccc(-c2cc(C(=O)N3CCCc4ccccc43)c3ccccc3n2)c1,inactive
24,COc1ccc(NC(=O)c2csc(C)c2)cc1OC,"inconclusive: 16.4 µM [activator, partial curve, poor fit]"

row,Compound,Potency
1,Cc1ccc(C(=O)NCCNc2nc3cc(C)c(C)cc3cc2C)cc1,"inconclusive: 18.3 µM [activator, single point]"
2,COCC1CCN(Cc2nc(-c3ccc4c(c3)OCO4)no2)C1 (configuration not stated),"inconclusive: 20.6 µM [activator, single point]"
3,O=C(Nc1ccc2c(c1)OCCO2)c1cc(F)c(F)cc1Cl,"inconclusive: 29.1 µM [activator, single point]"
4,C(=C\c1ccc2ccccc2n1)/c1ccccc1,"inconclusive: 0.58 µM [activator, partial curve, poor fit]"
5,COc1ccc(-c2cc3c(=O)n(CC(=O)NCCCc4ccccc4)ncn3n2)cc1,"inconclusive: 20.6 µM [activator, partial curve, poor fit]"
6,O=C(c1ccccc1)N1CCCCCC1,inactive
7,O=C(Nc1ccc2c(c1)OCO2)OCc1ccccc1,"inconclusive: 5.17 µM [activator, partial curve]"
8,CCCS(=O)(=O)Nc1cccc(-c2ccc3nnc(C)n3n2)c1,"inconclusive: 18.3 µM [activator, partial curve]"
9,COC(=O)C1=C(C)Nc2nc3ccccc3n2C1c1cc(OC)c(OC)c(OC)c1 (configuration not stated),"inconclusive: 18.3 µM [activator, partial curve, poor fit]"
10,O=C(Cn1cnc2ccccc21)N/N=C/c1ccccc1,inactive
11,COC(=O)CC(NC(=O)c1cccs1)c1ccc(OC)c(OC)c1 (configuration not stated),inactive
12,CC(=O)c1ccc(NC(=O)Nc2cccc(Cl)c2)cc1,"inconclusive: 1.64 µM [activator, partial curve, poor fit]"
13,COc1cccc(C(=O)Nc2nnc(-c3ccc(OC)cc3OC)s2)c1,"inconclusive: 20.6 µM [activator, single point]"
14,CCc1ccc(S(=O)(=O)Nc2ccc(-c3nc4cccnc4s3)cc2)s1,active: 14.6 µM
15,CCn1cc(Br)c(C(=O)Nc2cccc(Cl)c2)n1,"inconclusive: 14.6 µM [activator, partial curve]"
16,Cc1csc(NC(=O)c2sc3nc(-c4cccs4)ccc3c2N)n1,"inconclusive: 4.11 µM [activator, partial curve]"
17,Cc1cc(Nc2cc(F)ccc2C)n2ncnc2n1,"inconclusive: 25.9 µM [activator, single point]"
18,CCN(C(=O)C1=COCCO1)c1nc2c(C)cccc2s1,active: 20.6 µM
19,O=C1C2C3C=CC(C4CC34)C2C(=O)N1c1cccc2ccccc12 (configuration not stated),inactive
20,CCCCCC(C)NC(=O)c1ccoc1C (configuration not stated),inactive
21,CC(C)Oc1cc(O)c2c(=O)c(-c3ccc(O)cc3)coc2c1,active: 16.4 µM
22,COc1ccc(CNC(=O)COc2cc(=O)n(C)c3ccccc23)cc1,"inconclusive: 16.4 µM [activator, partial curve, poor fit]"
23,COc1cc(C2C(C#N)=C(N)Oc3cc(N)ccc32)cc(OC)c1OC (configuration not stated),"inconclusive: 8.2 µM [activator, partial curve]"
